Results are given in words; binding and its absence hold for the method and conditions named. For part of these data: Binding seen in cells or lysates may run through a third protein. Some entries that bind do so weakly or less than the wild type.
Tests used:
GST-NOD2-LRR = GST-NOD2-LRR (UniProt Q9HC29); experiment: pull-down; purified GST-NOD2-LRR immobilized on GST beads overnight at 4°C, incubated with His-ELMO-CT or His-ELMO-FL for 4h at 4°C; anti-His immunoblot; also with varying concentrations of GST-NOD2-LRR (Figure S1); both purified
[1] = target: GST-ELMO1 full length (FL) (UniProt Q92556); experiment: pull-down; GST, GST-ELMO1 FL and GST-ELMO1 CT immobilized on glutathione beads; soluble recombinant His-NOD2 CARD or His-NOD2 LRR incubated with the beads; bound NOD2 detected with anti-His antibody; both purified
[2] = target: Flag-tagged ELMO1 (Engulfment and Cell Motility Protein-1) (UniProt Q92556); experiment: co-IP; HEK293 cells co-transfected with Flag-ELMO1 and HA-NOD2 (WT or mutant); lysed in NP buffer; about 1 mg lysate with ANTI-FLAG M2 Affinity Gel overnight at 4°C; immunoblot

By UniProt entry, the sequences of proteins in these tests, tags left out. Where a name states a change or a piece, a line headed by the entry shows the natural chain unless it says otherwise.
UniProt Q9HC29: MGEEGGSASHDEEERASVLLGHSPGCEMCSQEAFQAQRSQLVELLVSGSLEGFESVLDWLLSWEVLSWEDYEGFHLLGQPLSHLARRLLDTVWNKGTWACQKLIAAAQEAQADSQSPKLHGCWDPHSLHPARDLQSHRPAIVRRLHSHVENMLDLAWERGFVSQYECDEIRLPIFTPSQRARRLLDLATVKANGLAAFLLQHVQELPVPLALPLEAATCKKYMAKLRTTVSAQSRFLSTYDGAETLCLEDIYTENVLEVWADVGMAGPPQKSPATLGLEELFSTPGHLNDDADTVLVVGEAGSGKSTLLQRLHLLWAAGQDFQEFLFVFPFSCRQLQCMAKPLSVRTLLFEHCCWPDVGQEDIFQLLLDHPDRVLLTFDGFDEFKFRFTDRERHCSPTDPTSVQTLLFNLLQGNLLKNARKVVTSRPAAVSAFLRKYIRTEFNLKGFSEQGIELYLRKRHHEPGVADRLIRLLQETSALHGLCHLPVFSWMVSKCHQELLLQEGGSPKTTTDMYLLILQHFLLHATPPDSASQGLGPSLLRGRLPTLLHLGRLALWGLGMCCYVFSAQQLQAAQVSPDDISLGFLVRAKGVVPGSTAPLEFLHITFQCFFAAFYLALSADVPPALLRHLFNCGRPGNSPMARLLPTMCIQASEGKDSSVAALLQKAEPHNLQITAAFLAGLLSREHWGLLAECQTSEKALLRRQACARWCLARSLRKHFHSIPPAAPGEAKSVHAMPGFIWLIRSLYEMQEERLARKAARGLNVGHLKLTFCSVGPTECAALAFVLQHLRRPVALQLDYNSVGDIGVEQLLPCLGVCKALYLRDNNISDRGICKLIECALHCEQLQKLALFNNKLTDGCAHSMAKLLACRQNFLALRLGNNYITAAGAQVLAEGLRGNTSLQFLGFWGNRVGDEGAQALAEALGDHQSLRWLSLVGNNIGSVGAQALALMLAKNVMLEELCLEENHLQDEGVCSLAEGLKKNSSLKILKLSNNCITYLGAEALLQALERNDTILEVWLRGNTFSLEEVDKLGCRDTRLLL
UniProt Q92556: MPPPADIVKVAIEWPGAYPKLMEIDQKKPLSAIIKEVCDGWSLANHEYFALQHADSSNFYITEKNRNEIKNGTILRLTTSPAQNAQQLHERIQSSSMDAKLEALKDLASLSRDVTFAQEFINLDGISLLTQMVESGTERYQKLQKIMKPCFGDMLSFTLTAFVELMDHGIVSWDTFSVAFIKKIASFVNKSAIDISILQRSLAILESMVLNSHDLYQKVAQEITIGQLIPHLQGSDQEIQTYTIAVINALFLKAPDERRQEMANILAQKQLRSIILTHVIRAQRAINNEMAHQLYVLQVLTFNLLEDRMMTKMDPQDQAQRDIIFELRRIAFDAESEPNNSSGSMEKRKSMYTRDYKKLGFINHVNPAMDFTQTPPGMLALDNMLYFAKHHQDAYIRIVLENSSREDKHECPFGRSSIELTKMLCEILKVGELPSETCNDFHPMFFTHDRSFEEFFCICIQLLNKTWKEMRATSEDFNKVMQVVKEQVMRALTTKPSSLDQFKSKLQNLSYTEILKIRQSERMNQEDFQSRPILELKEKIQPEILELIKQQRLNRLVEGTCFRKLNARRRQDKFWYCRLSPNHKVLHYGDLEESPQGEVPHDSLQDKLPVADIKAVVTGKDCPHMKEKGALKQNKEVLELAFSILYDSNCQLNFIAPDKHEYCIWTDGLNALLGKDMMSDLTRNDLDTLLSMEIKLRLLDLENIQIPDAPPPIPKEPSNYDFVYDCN

Substance	binding [1]	binding [2]	also measured
His-ELMO1 FL (from UniProt Q92556 1-727)	–	–	binding (GST-NOD2-LRR): binds
HA-NOD2 R702W (from UniProt Q9HC29 1-1040)	–	binds	–
HA-NOD2 G908R (from UniProt Q9HC29 1-1040)	–	binds	–

Now from value to substance, other results behind:

binding [1]	binding [2]	Substance	also measured
binds	–	His-NOD2 LRR (from UniProt Q9HC29 744-1040) (domain or fragment)	–
no binding	–	His-NOD2 CARD (from UniProt Q9HC29 28-265) (domain or fragment)	–
–	binds	HA-tagged NOD2 (Nucleotide-binding oligomerization domain-containing protein 2), wild type (from UniProt Q9HC29 1-1040)	–

Source: article PMC9980453
